# Experimental data reported in PMC6451091.
# The list shows a part of the results. For some assays here: At the low end of the ranking, values are background and their order means little. For some assays here: The protein was read in a cell extract, so binding may be indirect.
# Experiments:
# Settings in all cases: 20 mM HEPES pH 7.9, 100 mM NaCl, 1 mM DTT, 0.2 mg/mL BSA, 0.02% Triton X-100, 2% milk, 0.4 mg/mL salmon testes DNA; 1 h; temperature not stated; high values mean tight binding; double strand, one strand shown; sequences stand for … in GCCTAGCAC…GTGCTAGGTCTTGATTCGCTTGACGCTGCTG
# PU.1 (IVT) = PU.1 (IVT) (UniProt P17947); assay: protein-binding microarray (PBM)
# [1] = target: PU.1 (endogenous, THP-1 nuclear extract) (UniProt P17947); assay: nuclear extract protein-binding microarray (nextPBM)
# [2] = target: T1, FLI1 (endogenous, THP-1 nuclear extract) (UniProt Q01543); assay: as above
# T1 sequence: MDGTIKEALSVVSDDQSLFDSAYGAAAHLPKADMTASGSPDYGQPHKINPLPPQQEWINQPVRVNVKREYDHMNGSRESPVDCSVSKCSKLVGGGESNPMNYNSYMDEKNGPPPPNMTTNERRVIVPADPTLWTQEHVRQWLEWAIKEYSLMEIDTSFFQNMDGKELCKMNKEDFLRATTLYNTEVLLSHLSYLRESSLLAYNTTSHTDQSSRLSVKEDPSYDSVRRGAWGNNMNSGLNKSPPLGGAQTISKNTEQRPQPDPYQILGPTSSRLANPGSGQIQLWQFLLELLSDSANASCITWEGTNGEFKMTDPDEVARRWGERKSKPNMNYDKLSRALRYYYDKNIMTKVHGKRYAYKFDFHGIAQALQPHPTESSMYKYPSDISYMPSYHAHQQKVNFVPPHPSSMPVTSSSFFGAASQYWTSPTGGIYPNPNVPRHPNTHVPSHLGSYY
# [3] = system: PU.1 (endogenous, THP-1 nuclear extract) + IRF8 (endogenous, THP-1 nuclear extract); assay: as above
Sequence,binding signal (PU.1 (IVT)) [z-score],binding signal [1] [z-score],binding signal [2] [z-score],binding signal [3] [z-score]
CAGGTATTCGTGACTAGTCC,-0.796,-0.262,-0.802,-1.05
ACTGTAGCCCAAGAGTATCT,-0.747,-0.299,-0.753,0.474
CGCAGATCCAGCGCCCAGAG,-0.173,-0.314,-0.463,0.0452
TGACACAGAAGGAAAGTGAG,-0.0222,0.0777,0.196,0.999
CCTGGTTTAATATCTGCCTG,-0.312,-0.278,-0.0117,-0.753
AAGAAAGCTGCCTGAAAGTA,-0.576,-0.566,-0.154,1.05
TGGCAGACTGCGTGAAACTA,-0.547,-0.451,-0.384,2.71
GAGGTTGCATCTTTTAAGAG,-0.146,-0.417,-0.479,0.253
TTGGAAACTGCGTGAAACTG,-0.0571,-0.636,0.0239,2.61
CTGTCTTTGACCTTTGACAG,-0.136,-0.558,-0.255,-0.856
CAGGCAACTGCCTGAAACTC,-0.184,-0.148,-0.573,2.1
CCCAGAGCTGCGTGAAACCA,-0.491,-0.487,-0.599,1.53
GCCCTGGGTTTCACTGGCCT,-0.0585,-0.345,-0.984,2.12
ACAAACGCTGCGTGAAAGCT,-0.452,-0.538,-0.598,-0.852
